# The supplement of paper PMC4604168 (melanoma cell lines)
# The other results are listed elsewhere or left out. Repeats are few or missing, and single values can be far off.
# What was measured:
# Assay in all cases: cell count relative to DMSO control; melanoma cells; higher = more viable cells
# Details in all cases: library dose: low library concentration; 72 h
# MZ2-MEL = test system: MZ2-MEL
# MeWo = test system: MeWo
# RPMI7951 = test system: RPMI7951
# RVH-421 = test system: RVH-421
# SkMel28 = test system: SkMel28
# SkMel2 = test system: SkMel2
# SkMel30 = test system: SkMel30
# UACC62 = test system: UACC62
# WM115 = test system: WM115
# WM1716 = test system: WM1716
# WM1745 = test system: WM1745
# WM3526 = test system: WM3526
# WM3619 = test system: WM3619
# WM451Lu = test system: WM451Lu
# 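Further: cell number obtained by counting DAPI-stained nuclei in high-throughput microscope images with image analysis software, screen run in 1,536-well plates.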
Compound,cell count (MZ2-MEL) [%],cell count (MeWo) [%],cell count (RPMI7951) [%],cell count (RVH-421) [%],cell count (SkMel28) [%],cell count (SkMel2) [%],cell count (SkMel30) [%],cell count (UACC62) [%],cell count (WM115) [%],cell count (WM1716) [%],cell count (WM1745) [%],cell count (WM3526) [%],cell count (WM3619) [%],cell count (WM451Lu) [%]
"CN(c1ncccc1CNc1nc(Nc2ccc3c(c2)CC(=O)N3)ncc1C(F)(F)F)S(C)(=O)=O + OCc1c[nH]c2ccccc12 [Indole-3-carbinol] (first compound 0.08 µM, partner dose 0.8 µM)",91.5,92.8,82.3,87.6,73.7,92.4,98.4,83.3,74.6,78.4,82,77.5,75.4,56.2
"CN(c1ncccc1CNc1nc(Nc2ccc3c(c2)CC(=O)N3)ncc1C(F)(F)F)S(C)(=O)=O + C=C(c1ccc(C(=O)O)cc1)c1cc2c(cc1C)C(C)(C)CCC2(C)C [Bexarotene] (first compound 0.08 µM, partner dose 2 µM)",81.6,84.6,53.6,96.2,50.1,69.9,110,83.6,79.8,77.8,75.7,77.9,108,66.7
"CS(=O)(=O)c1ccc(C(=O)Nc2ccc(Cl)c(-c3ccccn3)c2)c(Cl)c1 [vismodegib] + CCCCCCCCc1ccc(CCC(N)(CO)CO)cc1 [fingolimod] (first compound 1 µM, partner dose 2 µM)",105,81.6,81.9,127,88.3,99.4,90.5,83.1,86.8,89.2,87.4,105,89.4,98
"NC1(c2ccc(-c3nc4ccn5c(=O)[nH]nc5c4cc3-c3ccccc3)cc2)CCC1 + CC(C)C[C@H](NC(=O)[C@H](Cc1ccccc1)NC(=O)c1cnccn1)B(O)O [Bortezomib] (first compound 0.4 µM, partner dose 0.001 µM)",91.7,82.4,80.9,75.9,59.4,82.9,71.2,78.7,77.1,58.7,83.1,72.4,53.9,90.6
"CS(=O)(=O)c1ccc(C(=O)Nc2ccc(Cl)c(-c3ccccn3)c2)c(Cl)c1 [vismodegib] + Cn1c(Nc2ccc(C(F)(F)F)cc2)nc2cc(Oc3ccnc(-c4ncc(C(F)(F)F)[nH]4)c3)ccc21 [CHIR265] (first compound 1 µM, partner dose 0.08 µM)",89.1,56,74.4,69.4,63.5,94.6,61.3,56.2,73.5,105,89.8,78.6,68.8,150
"CS(=O)(=O)c1ccc(C(=O)Nc2ccc(Cl)c(-c3ccccn3)c2)c(Cl)c1 [vismodegib] + Nc1nc(F)nc2c1ncn2[C@@H]1O[C@H](CO)[C@@H](O)[C@@H]1O [fludarabine] (first compound 1 µM, partner dose 0.2 µM)",107,37.2,101,99,85.7,12,17.3,87.5,93.7,106,109,37.7,86.9,57.6
"CS(=O)(=O)c1ccc(C(=O)Nc2ccc(Cl)c(-c3ccccn3)c2)c(Cl)c1 [vismodegib] + CC(C)C[C@H](NC(=O)[C@H](Cc1ccccc1)NC(=O)c1cnccn1)B(O)O [Bortezomib] (first compound 1 µM, partner dose 0.001 µM)",98,97.7,95.8,97.2,92.9,93.4,104,95,97.8,78,87.6,80.4,74.4,101
"CN(c1ncccc1CNc1nc(Nc2ccc3c(c2)CC(=O)N3)ncc1C(F)(F)F)S(C)(=O)=O + C=CCNC1=C2C[C@@H](C)C[C@H](OC)[C@H](O)[C@@H](C)/C=C(\C)[C@H](OC(N)=O)[C@@H](OC)/C=C\C=C(/C)C(=O)NC(=CC1=O)C2=O [Tanespimycin] (first compound 0.08 µM, partner dose 0.002 µM)",90.3,95.9,75.2,81,84.3,82,104,85.5,65.4,85.5,84.9,112,95.3,63.5
"NC1(c2ccc(-c3nc4ccn5c(=O)[nH]nc5c4cc3-c3ccccc3)cc2)CCC1 + Cn1c(Nc2ccc(C(F)(F)F)cc2)nc2cc(Oc3ccnc(-c4ncc(C(F)(F)F)[nH]4)c3)ccc21 [CHIR265] (first compound 0.4 µM, partner dose 0.08 µM)",79,59,61.5,62.6,60.2,72.8,88.6,42.9,38.5,76.6,80.7,51.4,79.8,89.4
"C=C(c1ccc(C(=O)O)cc1)c1cc2c(cc1C)C(C)(C)CCC2(C)C [Bexarotene] + Cc1nc(Nc2ncc(C(=O)Nc3c(C)cccc3Cl)s2)cc(N2CCN(CCO)CC2)n1 [dasatanib] (first compound 2 µM, partner dose 0.004 µM)",84.1,98.6,65.7,76.8,57.8,99.1,102,82.1,86.4,78.3,70.6,80.9,81.5,81.7
"CS(=O)(=O)c1ccc(C(=O)Nc2ccc(Cl)c(-c3ccccn3)c2)c(Cl)c1 [vismodegib] + C[C@@H](Oc1cc(-c2cnn(C3CCNCC3)c2)cnc1N)c1c(Cl)ccc(F)c1Cl [Crizotinib] (first compound 1 µM, partner dose 0.2 µM)",99.2,93.8,116,99.8,82.8,111,100,98.3,106,104,107,111,103,91.6
"CCCS(=O)(=O)Nc1ccc(F)c(C(=O)c2c[nH]c3ncc(Cl)cc23)c1F + C#Cc1cccc(Nc2ncnc3cc(OCCOC)c(OCCOC)cc23)c1 [erlotinib] (first compound 0.08 µM, partner dose 0.8 µM)",84,109,107,77.3,97.7,104,80.4,67.9,105,103,87,63.7,87.9,101
"NC1(c2ccc(-c3nc4ccn5c(=O)[nH]nc5c4cc3-c3ccccc3)cc2)CCC1 + OCc1c[nH]c2ccccc12 [Indole-3-carbinol] (first compound 0.4 µM, partner dose 0.8 µM)",90.5,92.5,90.3,73.8,84,91,81.7,81.3,80.8,87.4,94.4,72.3,87.8,93.3
"CN(c1ncccc1CNc1nc(Nc2ccc3c(c2)CC(=O)N3)ncc1C(F)(F)F)S(C)(=O)=O + Cc1cc(Nc2cc(N3CCN(C)CC3)nc(/C=C/c3ccccc3)n2)n[nH]1 [ENMD2076] (first compound 0.08 µM, partner dose 0.04 µM)",92.7,91,71.6,87.9,98,105,105,97.8,84.4,94.7,82.3,97.5,108,88.6
"CS(=O)(=O)c1ccc(C(=O)Nc2ccc(Cl)c(-c3ccccn3)c2)c(Cl)c1 [vismodegib] + CC(=O)O[C@@]12CO[C@@H]1C[C@H](O)[C@@]1(C)C(=O)[C@H](O)C3=C(C)[C@@H](OC(=O)[C@H](O)[C@@H](NC(=O)OC(C)(C)C)c4ccccc4)C[C@@](O)([C@@H](OC(=O)c4ccccc4)[C@H]21)C3(C)C [Docetaxel] (first compound 1 µM, partner dose 0.0001 µM)",49.5,63.1,37.1,95.3,75,52.9,29.9,56.3,70.5,55.4,59.7,41.7,80.1,44
"CS(=O)(=O)c1ccc(C(=O)Nc2ccc(Cl)c(-c3ccccn3)c2)c(Cl)c1 [vismodegib] + Cn1c(=O)n(-c2ccc(C(C)(C)C#N)cc2)c2c3cc(-c4cnc5ccccc5c4)ccc3ncc21 [NVP-BEZ235] (first compound 1 µM, partner dose 0.004 µM)",100,86.3,96.3,122,111,110,86.7,84.2,91.5,101,102,106,90.2,98.7
"CN(c1ncccc1CNc1nc(Nc2ccc3c(c2)CC(=O)N3)ncc1C(F)(F)F)S(C)(=O)=O + CC(C)C[C@H](NC(=O)[C@H](Cc1ccccc1)NC(=O)c1cnccn1)B(O)O [Bortezomib] (first compound 0.08 µM, partner dose 0.001 µM)",80.2,90,66,70.3,83.8,89.1,85.9,70.4,82,42.9,66.2,83.8,21.1,79.9
"CN(c1ncccc1CNc1nc(Nc2ccc3c(c2)CC(=O)N3)ncc1C(F)(F)F)S(C)(=O)=O + CCCS(=O)(=O)Nc1ccc(F)c(C(=O)c2c[nH]c3ncc(Cl)cc23)c1F [PLX4720] (first compound 0.08 µM, partner dose 0.08 µM)",91.1,106,69.9,86.5,96.6,81.9,97.6,86.4,89,96.2,84.8,92.2,96.2,92
"NC1(c2ccc(-c3nc4ccn5c(=O)[nH]nc5c4cc3-c3ccccc3)cc2)CCC1 + CNC(=O)c1cc(Oc2ccc(NC(=O)Nc3ccc(Cl)c(C(F)(F)F)c3)cc2)ccn1 [sorafenib] (first compound 0.4 µM, partner dose 0.4 µM)",80.7,85.7,94,108,56.7,86.7,80.9,72.4,71.8,88.3,84.9,69,80.2,141
"CS(=O)(=O)c1ccc(C(=O)Nc2ccc(Cl)c(-c3ccccn3)c2)c(Cl)c1 [vismodegib] + Cc1cc(Nc2cc(N3CCN(C)CC3)nc(/C=C/c3ccccc3)n2)n[nH]1 [ENMD2076] (first compound 1 µM, partner dose 0.04 µM)",100,96.2,96.9,88.9,108,102,87.6,77.5,102,87.9,85.6,79.6,87.9,91.1
